{
  "source": "PubChem BioAssay AID686979",
  "about": "(National Center for Advancing Translational Sciences (NCATS), 2013)",
  "note": "Hit rate of the full screen: of about 420,000 compounds, about 50,000 (12%) were called active. Inconclusive results, whose numbers are uncertain, are shown with a selection of clear calls. Calls follow the shape of the dose curve; as a rule, active = well fitted inhibition curve with a large enough effect; inconclusive = small, poorly fitted or top-dose-only effect; inactive = flat fitted curve, though single readings scatter. Potencies of inconclusive entries are left out as doubtful fits. % is scaled to controls: 0 for no effect and ±100 for the full control effect; potency is read from the fitted curve at half-maximal effect; tags tell the direction and shape of the fitted curve.",
  "data": [
    {"assay": "qHTS for Inhibitors of human tyrosyl-DNA phosphodiesterase 1 (TDP1): qHTS in cells in presence of CPT; also: nearly all actives have a fitted effect of over 55% in size", "details": "chicken DT40 Tdp1-/-;hTDP1 cells + 20 nM CPT, ATP luminescence, 48 h; activity change, negative = growth inhibition: at 46.2 µM (top of the series) unless noted", "how_it_was_run": "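Cell growth measured by CellTiter-Glo luminescence after a minimum 48 h, 37 C compound exposure with 20 nM CPT in Tdp1-knockout DT40 cells stably expressing hTDP1, seeded 400/well; qHTS titration format.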", "values": [
      {"smiles": "O=C(CCn1c(=O)oc2ccccc21)N(Cc1ccccc1)c1ccccc1", "Potency": "inconclusive [inhibitor, single point]"},
      {"smiles": "COc1cc2c(C(=O)N3CCN(c4ccc(F)cc4)CC3)cn(CC(C)C)c(=O)c2cc1OC", "Potency": "inconclusive [inhibitor, single point]"},
      {"smiles": "CC(=O)c1c(C)[nH]c(C(=O)Nc2cc(S(=O)(=O)N3CCCCC3)ccc2C)c1C", "Potency": "inconclusive [inhibitor, partial curve, poor fit]"},
      {"smiles": "O=c1c2c(nc3cc(-c4ccc(F)cc4)[nH]n13)CCCC2", "Potency": "inconclusive [inhibitor, partial curve]"},
      {"smiles": "c1ccc(-c2nnc(CSc3nnc(-c4ccncc4)n3Cc3ccco3)o2)cc1", "Potency": "inconclusive [inhibitor, single point]"},
      {"smiles": "COc1cc(N=Nc2ccc3ccccc3c2)ccc1O", "Potency": "inconclusive [inhibitor, single point]"},
      {"smiles": "CCOc1ccccc1NC(=O)C1CCCN(S(=O)(=O)c2cccs2)C1", "note": "(stereo unspecified)", "Potency": "active: 23.1 µM"},
      {"smiles": "COc1ccccc1/C=N/NC(=O)c1cccc2ccccc12", "Potency": "active: 23.1 µM"},
      {"smiles": "COc1ccc(COC(=O)Nc2cc3c(C(F)(F)F)nn(C)c3s2)cc1", "activity change, negative = growth inhibition": "inactive: -3.54%"},
      {"smiles": "COCC(=O)N1CCC2(CC1)CN(c1ccccc1)C2", "Potency": "inconclusive [inhibitor, full curve, poor fit]"},
      {"smiles": "CCC[C@@H]1CCCO[C@@](C(=O)NCc2ccc(S(C)(=O)=O)cc2)(C(F)(F)F)C1", "Potency": "active: 29.1 µM"},
      {"smiles": "CCC(=O)Nc1cccc(NC(=O)CSc2nnc(-c3ccc(NS(C)(=O)=O)cc3)n2C)c1", "Potency": "inconclusive [inhibitor, partial curve]"},
      {"smiles": "CN1CCN(CCCNC(=O)C2CC(=O)N(C3CCCCC3)C2)CC1", "note": "(stereo unspecified)", "activity change, negative = growth inhibition": "inactive: 5.66%"},
      {"smiles": "Cc1cc(C(=O)COC(=O)c2ccccc2O)c(C)n1CC1CCCO1", "note": "(stereo unspecified)", "Potency": "inconclusive [inhibitor, single point]"},
      {"smiles": "CCCCOc1ccccc1NC(=O)CC1Sc2ccccc2NC1=O", "note": "(stereo unspecified)", "Potency": "active: 20.6 µM"},
      {"smiles": "O=C(Nc1ccsc1C(=O)O)c1cccc(Oc2ccccc2)c1", "activity change, negative = growth inhibition": "inconclusive: -1.73% [inhibitor]"},
      {"smiles": "O=C(CSC1=NCCS1)Nc1nc2ccccc2s1", "Potency": "inconclusive [inhibitor, partial curve]"},
      {"smiles": "CC(OC(=O)Cn1[nH]c(=O)c2ccccc2c1=O)C(=O)Nc1ccc(Cl)cn1", "note": "(stereo unspecified)", "activity change, negative = growth inhibition": "inactive: -29.8%"},
      {"smiles": "CCN(CCCNC(=O)C1CCN(S(=O)(=O)N2CCOCC2)CC1)c1cccc(C)c1", "Potency": "inconclusive [inhibitor, single point]"},
      {"smiles": "CN1OC[C@@H]2CN(Cc3ccccc3)[C@H](c3cccc(-c4ccc(C#N)cc4)c3)C[C@@H]21", "Potency": "inconclusive [inhibitor, single point]"},
      {"smiles": "O=C(N/N=C/C(Br)=C\\c1ccccc1)c1ccc2nc[nH]c2c1", "Potency": "active: 10.3 µM"},
      {"smiles": "S=c1[nH]c(-c2ccc(Cl)cc2)cs1", "Potency": "inconclusive [inhibitor, single point]"},
      {"smiles": "Cc1c(Cl)cccc1NC(=S)NC1CCCC1", "activity change, negative = growth inhibition": "inactive: -1.13%"},
      {"smiles": "Cc1cc(Nc2ccc(Br)cc2)nc(-c2ccccc2O)n1", "Potency": "inconclusive [inhibitor, single point]"},
      {"smiles": "Cc1ccccc1Oc1ccc(Oc2ccccc2C)nn1", "activity change, negative = growth inhibition": "inactive: -20.2%"},
      {"smiles": "COC(=O)c1ccc(C(=O)OC)c(NC(=O)C2CC2)c1", "activity change, negative = growth inhibition": "inactive: 0.425%"},
      {"smiles": "CCOC(=O)N1CCN(CCC(=O)Nc2ccc(Br)c(C)c2)CC1", "Potency": "inconclusive [inhibitor, single point]"},
      {"smiles": "CN(CC(=O)Nc1ccc(Cl)c(C(F)(F)F)c1)C(=O)C1CC(=O)N(Cc2ccco2)C1", "note": "(stereo unspecified)", "Potency": "active: 13 µM"},
      {"smiles": "CN(C)c1ccc(/C=C/c2ccnc3ccc(O)cc23)cc1", "Potency": "inconclusive [inhibitor, partial curve]"},
      {"smiles": "O=[N+]([O-])c1ccccc1S(=O)(=O)Oc1ccccc1/C=N/n1cnnc1", "Potency": "inconclusive [inhibitor, single point]"},
      {"smiles": "CCC(C)C(NC(=O)C1CCC(C)CC1)C(=O)Nc1cc(OC)ccc1OC", "note": "(stereo unspecified)", "Potency": "inconclusive [inhibitor, partial curve]"},
      {"smiles": "Cc1c(OC(C)C(=O)N[C@@H](Cc2ccccc2)C(=O)O)ccc2c3c(c(=O)oc12)CCCC3", "note": "(stereo partly specified)", "activity change, negative = growth inhibition": "inactive: 2.76%"},
      {"smiles": "Cc1nn(C)c(Cl)c1CN1CCCC(C(=O)Nc2cccc(-n3cccn3)c2)C1", "note": "(stereo unspecified)", "Potency": "active: 11.6 µM"},
      {"smiles": "O=C(Cc1ccccc1)Nc1ncccc1Cl", "activity change, negative = growth inhibition": "inactive: 8.94%"},
      {"smiles": "Cc1ccc(N=C2C(=O)Nc3c(C)cccc32)cc1", "activity change, negative = growth inhibition": "inactive: -5.42%"},
      {"smiles": "O=C(O)C1CC=C(Cl)CC1C(=O)NCc1ccccc1", "note": "(stereo unspecified)", "activity change, negative = growth inhibition": "inactive: -22%"},
      {"smiles": "FC(F)(F)COc1nc(N2CCCCC2)nc(N2CCNCC2)n1", "Potency": "inconclusive [inhibitor, single point]"},
      {"smiles": "CC(=O)c1ccc(Nc2nc(C(N)c3ccccc3)cs2)cc1", "note": "(stereo unspecified)", "Potency": "inconclusive [inhibitor, single point]"},
      {"smiles": "CC(C)N1CCC1(C)C(=O)Nc1ccc2cn[nH]c2c1", "note": "(stereo unspecified)", "Potency": "inconclusive [inhibitor, partial curve]"},
      {"smiles": "O=C(c1cccc(F)c1)N1CCC2(CC1)CN(c1ccccc1)C2", "Potency": "active: 7.31 µM"},
      {"smiles": "COc1ccc(CCNC(=O)C(=O)NCC2OCCN2S(=O)(=O)c2cc(F)ccc2F)cc1", "note": "(stereo unspecified)", "Potency": "inconclusive [inhibitor, partial curve, poor fit]"},
      {"smiles": "Cc1ccc(CSCCNC(=O)CN(c2cc(C)ccc2C)S(C)(=O)=O)cc1", "Potency": "inconclusive [inhibitor, partial curve, poor fit]"},
      {"smiles": "CCOc1ccc(-c2nnn(CC(=O)N3CCCC(C)C3)n2)cc1", "note": "(stereo unspecified)", "activity change, negative = growth inhibition": "inactive: -24.8%"},
      {"smiles": "COc1ccc(CCNC(=O)CCc2c(C)nc3cc(-c4ccc(Cl)cc4)nn3c2C)c(OC)c1", "Potency": "inconclusive [inhibitor, full curve, poor fit]"},
      {"smiles": "C[C@H](NS(=O)(=O)c1ccccc1F)C(=O)OCC(=O)Nc1ccc2c(c1)OCCO2", "activity change, negative = growth inhibition": "inactive: 2.27%"},
      {"smiles": "CCCNC(=O)N(C)C[C@@H]1Oc2cc(Br)ccc2S(=O)(=O)N([C@@H](C)CO)C[C@H]1C", "Potency": "inconclusive [inhibitor, single point]"},
      {"smiles": "CCc1nc2ccc(C(=O)N3CCN(C(=O)c4ccco4)CC3)cn2c1N(C)C(=O)COc1ccccc1", "activity change, negative = growth inhibition": "inactive: -0.337%"},
      {"smiles": "CN(C)c1ccc(NC(=O)c2cn(-c3ccccc3)nc2-c2cccs2)cc1", "activity change, negative = growth inhibition": "inactive: 2.87%"},
      {"smiles": "Cc1noc(/C=C/c2ccccc2F)c1S(=O)(=O)N1CCC(C(=O)NCc2ccco2)CC1", "Potency": "inconclusive [inhibitor, single point]"},
      {"smiles": "CCOC(=O)c1c(C)[nH]c(C(=O)OCC(=O)N2c3ccccc3CC2C)c1C", "note": "(stereo unspecified)", "Potency": "inconclusive [inhibitor, single point]"},
      {"smiles": "CCC(CC)C(C(=O)NCc1ccccc1)N(C)Cc1ccc(Cl)c(Cl)c1", "note": "(stereo unspecified)", "Potency": "active: 20.6 µM"},
      {"smiles": "COc1ccc(S(=O)(=O)N2CCCCC2)cc1NC(=O)Cc1c[nH]c2ccccc12", "Potency": "inconclusive [inhibitor, single point]"},
      {"smiles": "NC(=O)C(c1ccc(Br)cc1)c1ccc(C(=O)c2ccccc2)cc1", "note": "(stereo unspecified)", "Potency": "inconclusive [inhibitor, single point]"},
      {"smiles": "COC(=O)CCc1c(C)c(C(=O)c2cc(F)c(F)c(F)c2F)c2ccccn12", "Potency": "inconclusive [inhibitor, partial curve]"},
      {"smiles": "COc1ccc(C(C(=O)Nc2ccc(C(C)C)cc2)N(C)C(=O)c2ccc(=O)[nH]c2)cc1", "note": "(stereo unspecified)", "Potency": "inconclusive [inhibitor, single point]"},
      {"smiles": "CCOC(=O)c1ccccc1NC(=O)N1CCCn2nc(C)cc21", "Potency": "inconclusive [inhibitor, single point]"},
      {"smiles": "O=C(Nc1ccc(Cl)cc1Cl)[C@@H]1CC=C[C@@H]2CCN(C3CC3)C(=O)[C@@H]21", "Potency": "inconclusive [inhibitor, full curve]"},
      {"smiles": "O=C(Nc1cccc(F)c1)N1CCc2nc(NCc3cccc(Oc4ccccc4)c3)ncc2C1", "Potency": "inconclusive [inhibitor, single point]"},
      {"smiles": "CC(C)c1cc(NCCCN2CCOCC2)n2c(nc3ccccc32)c1C#N", "activity change, negative = growth inhibition": "inactive: -24.3%"},
      {"smiles": "Cc1ccc(SCC(=O)Nc2ccc(N3CCN(C)CC3)c(F)c2)cc1", "Potency": "inconclusive [inhibitor, partial curve]"},
      {"smiles": "CNC(=S)N/N=C(\\C)c1ccc(-n2ccnc2)cc1", "activity change, negative = growth inhibition": "inactive: -3.28%"},
      {"smiles": "NC(=S)NN=C1CCCC(C(F)(F)F)C1", "note": "(stereo unspecified)", "Potency": "inconclusive [inhibitor, single point]"},
      {"smiles": "CN(Cc1ccccc1N1CCCC1)C(=O)c1cc2ccccc2o1", "Potency": "inconclusive [inhibitor, single point]"},
      {"smiles": "COc1ccc(OC)c(Nc2ncnc3c2cnn3-c2cccc(C)c2)c1", "Potency": "active: 5.17 µM"},
      {"smiles": "CC1(C)C(=O)Nc2ccccc2N1C(=O)COC(=O)c1cccnc1Cl", "activity change, negative = growth inhibition": "inactive: 2.37%"},
      {"smiles": "OC[C@@H]1CN(Cc2cccnc2)C[C@H](n2cnc3c(N4CCCC4)ncnc32)O1", "activity change, negative = growth inhibition": "inactive: 1.9%"},
      {"smiles": "Cc1cc2ccccc2n1CCNC(=O)COc1ccc2ccccc2c1", "Potency": "inconclusive [inhibitor, partial curve]"},
      {"smiles": "Cc1ccc(C2=NN(C(=O)c3cccs3)C(c3ccccc3O)C2)cc1", "note": "(stereo unspecified)", "Potency": "inconclusive [inhibitor, single point]"},
      {"smiles": "COc1cc(C(=O)OCc2cc(=O)n3ccsc3n2)ccc1OC(C)C", "Potency": "active: 23.1 µM"},
      {"smiles": "CCN(CC)C(=O)CSc1nc2ccccc2c(=O)n1CCC(=O)NCCc1ccc(OC)c(OC)c1", "activity change, negative = growth inhibition": "inactive: -14%"},
      {"smiles": "CC(=O)NC(c1ccc(F)c(F)c1)c1nc(-c2ccccc2)cs1", "note": "(stereo unspecified)", "Potency": "inconclusive [inhibitor, single point]"}
    ]}
  ]
}
